Reference: patent US20260297081A1, “COMPOUNDS AND METHODS OF TREATING CANCERS” (Cullgen Inc., priority 2023, published 2026)
At least one read-out could not be matched to a standard name with certainty.

Test system: cyclin D1
Test: HiBiT detection of HiBiT-tagged cyclin D1 protein level in MCF7 cells, 16 hours (Table 8)
Type: cell-based
Conditions: MCF7 cells stably expressing HiBiT tagged target proteins

Row | Compound | % Cyclin D1 Relative Level (10 nM) | % Cyclin D1 Relative Level (100 nM)
1 | CNc1ccc(C(=O)Nc2ccc(N(C)C)nn2)c(NCCCCCCNC(=O)CN2CCN(c3ccc(Nc4ncc5cc6n(c5n4)C4(CCCCC4)CNC6=O)nc3)CC2)n1 [CPD-644, N-(6-(dimethylamino)pyridazin-3-yl)-6-(methylamino)-2-((6-(2-(4-(6-((6′-oxo-7′,8′-dihydro-6′H-spiro[cyclohexane-1,9′-pyrazino[1′,2′:1,5]pyrrolo[2,3-d]pyrimidin]-2′-yl)amino)pyridin-3-yl)piperazin-1-yl)acetamido)hexyl)amino)nicotinamide] | C (Relative protein level >85%) | C (Relative protein level >85%)
2 | CNc1ccc(C(=O)Nc2ccc(N(C)C)nn2)c(NCCCCCCCNC(=O)CN2CCN(c3ccc(Nc4ncc5cc6n(c5n4)C4(CCCCC4)CNC6=O)nc3)CC2)n1 [CPD-645, N-(6-(dimethylamino)pyridazin-3-yl)-6-(methylamino)-2-((7-(2-(4-(6-((6′-oxo-7′,8′-dihydro-6′H-spiro[cyclohexane-1,9′-pyrazino[1′,2′:1,5]pyrrolo[2,3-d]pyrimidin]-2′-yl)amino)pyridin-3-yl)piperazin-1-yl)acetamido)heptyl)amino)nicotinamide] | C (Relative protein level >85%) | C (Relative protein level >85%)
3 | CNc1ccc(C(=O)Nc2ccc(N(C)C)nn2)c(NCCCCCCCCNC(=O)CN2CCN(c3ccc(Nc4ncc5cc6n(c5n4)C4(CCCCC4)CNC6=O)nc3)CC2)n1 [CPD-646, N-(6-(dimethylamino)pyridazin-3-yl)-6-(methylamino)-2-((8-(2-(4-(6-((6′-oxo-7′,8′-dihydro-6′H-spiro[cyclohexane-1,9′-pyrazino[1′,2′:1,5]pyrrolo[2,3-d]pyrimidin]-2′-yl)amino)pyridin-3-yl)piperazin-1-yl)acetamido)octyl)amino)nicotinamide] | C (Relative protein level >85%) | C (Relative protein level >85%)
4 | CNc1ccc(C(=O)Nc2ccc(N(C)C)nn2)c(NCCOCCNC(=O)CN2CCN(c3ccc(Nc4ncc5cc6n(c5n4)C4(CCCCC4)CNC6=O)nc3)CC2)n1 [CPD-647, N-(6-(dimethylamino)pyridazin-3-yl)-6-(methylamino)-2-((2-(2-(2-(4-(6-((6′-oxo-7′,8′-dihydro-6′H-spiro[cyclohexane-1,9′-pyrazino[1′,2′:1,5]pyrrolo[2,3-d]pyrimidin]-2′-yl)amino)pyridin-3-yl)piperazin-1-yl)acetamido)ethoxy)ethyl)amino)nicotinamide] | C (Relative protein level >85%) | C (Relative protein level >85%)
5 | CNc1ccc(C(=O)Nc2ccc(N(C)C)nn2)c(NCCC(=O)N2CCN(c3ccc(Nc4ncc(F)c(-c5cc(F)c6nc(C)n(C(C)C)c6c5)n4)nc3)CC2)n1 [CPD-648, N-(6-(dimethylamino)pyridazin-3-yl)-2-((3-(4-(6-((5-fluoro-4-(4-fluoro-1-isopropyl-2-methyl-1H-benzo[d]imidazol-6-yl)pyrimidin-2-yl)amino)pyridin-3-yl)piperazin-1-yl)-3-oxopropyl)amino)-6-(methylamino)nicotinamide] | C (Relative protein level >85%) | C (Relative protein level >85%)
6 | CNc1ccc(C(=O)Nc2ccc(N(C)C)nn2)c(NCCCC(=O)N2CCN(c3ccc(Nc4ncc(F)c(-c5cc(F)c6nc(C)n(C(C)C)c6c5)n4)nc3)CC2)n1 [CPD-649, N-(6-(dimethylamino)pyridazin-3-yl)-2-((4-(4-(6-((5-fluoro-4-(4-fluoro-1-isopropyl-2-methyl-1H-benzo[d]imidazol-6-yl)pyrimidin-2-yl)amino)pyridin-3-yl)piperazin-1-yl)-4-oxobutyl)amino)-6-(methylamino)nicotinamide] | C (Relative protein level >85%) | C (Relative protein level >85%)
7 | CNc1ccc(C(=O)Nc2ccc(N(C)C)nn2)c(NCCCCC(=O)N2CCN(c3ccc(Nc4ncc(F)c(-c5cc(F)c6nc(C)n(C(C)C)c6c5)n4)nc3)CC2)n1 [CPD-650, N-(6-(dimethylamino)pyridazin-3-yl)-2-((5-(4-(6-((5-fluoro-4-(4-fluoro-1-isopropyl-2-methyl-1H-benzo[d]imidazol-6-yl)pyrimidin-2-yl)amino)pyridin-3-yl)piperazin-1-yl)-5-oxopentyl)amino)-6-(methylamino)nicotinamide] | C (Relative protein level >85%) | C (Relative protein level >85%)
8 | CNc1ccc(C(=O)Nc2ccc(N(C)C)nn2)c(NCCCCCC(=O)N2CCN(c3ccc(Nc4ncc(F)c(-c5cc(F)c6nc(C)n(C(C)C)c6c5)n4)nc3)CC2)n1 [CPD-651, N-(6-(dimethylamino)pyridazin-3-yl)-2-((6-(4-(6-((5-fluoro-4-(4-fluoro-1-isopropyl-2-methyl-1H-benzo[d]imidazol-6-yl)pyrimidin-2-yl)amino)pyridin-3-yl)piperazin-1-yl)-6-oxohexyl)amino)-6-(methylamino)nicotinamide] | C (Relative protein level >85%) | C (Relative protein level >85%)
9 | CNc1ccc(C(=O)Nc2ccc(N(C)C)nn2)c(NCCCCCCC(=O)N2CCN(c3ccc(Nc4ncc(F)c(-c5cc(F)c6nc(C)n(C(C)C)c6c5)n4)nc3)CC2)n1 [CPD-652, N-(6-(dimethylamino)pyridazin-3-yl)-2-((7-(4-(6-((5-fluoro-4-(4-fluoro-1-isopropyl-2-methyl-1H-benzo[d]imidazol-6-yl)pyrimidin-2-yl)amino)pyridin-3-yl)piperazin-1-yl)-7-oxoheptyl)amino)-6-(methylamino)nicotinamide] | C (Relative protein level >85%) | C (Relative protein level >85%)
10 | CNc1ccc(C(=O)Nc2ccc(N(C)C)nn2)c(NCCCCCCCC(=O)N2CCN(c3ccc(Nc4ncc(F)c(-c5cc(F)c6nc(C)n(C(C)C)c6c5)n4)nc3)CC2)n1 [CPD-653, N-(6-(dimethylamino)pyridazin-3-yl)-2-((8-(4-(6-((5-fluoro-4-(4-fluoro-1-isopropyl-2-methyl-1H-benzo[d]imidazol-6-yl)pyrimidin-2-yl)amino)pyridin-3-yl)piperazin-1-yl)-8-oxooctyl)amino)-6-(methylamino)nicotinamide] | C (Relative protein level >85%) | C (Relative protein level >85%)
11 | CNc1ccc(C(=O)Nc2ccc(N(C)C)nn2)c(NCCOCCC(=O)N2CCN(c3ccc(Nc4ncc(F)c(-c5cc(F)c6nc(C)n(C(C)C)c6c5)n4)nc3)CC2)n1 [CPD-654, N-(6-(dimethylamino)pyridazin-3-yl)-2-((2-(3-(4-(6-((5-fluoro-4-(4-fluoro-1-isopropyl-2-methyl-1H-benzo[d]imidazol-6-yl)pyrimidin-2-yl)amino)pyridin-3-yl)piperazin-1-yl)-3-oxopropoxy)ethyl)amino)-6-(methylamino)nicotinamide] | C (Relative protein level >85%) | C (Relative protein level >85%)
12 | CNc1ccc(C(=O)Nc2ccc(N(C)C)nn2)c(NCCOCCOCCC(=O)N2CCN(c3ccc(Nc4ncc(F)c(-c5cc(F)c6nc(C)n(C(C)C)c6c5)n4)nc3)CC2)n1 [CPD-655, N-(6-(dimethylamino)pyridazin-3-yl)-2-((2-(2-(3-(4-(6-((5-fluoro-4-(4-fluoro-1-isopropyl-2-methyl-1H-benzo[d]imidazol-6-yl)pyrimidin-2-yl)amino)pyridin-3-yl)piperazin-1-yl)-3-oxopropoxy)ethoxy)ethyl)amino)-6-(methylamino)nicotinamide] | C (Relative protein level >85%) | C (Relative protein level >85%)
13 | CNc1ccc(C(=O)Nc2ccc(N(C)C)nn2)c(NCC(=O)N2CCN(Cc3ccc(Nc4ncc(F)c(-c5cc(F)c6nc(C)n(C(C)C)c6c5)n4)nc3)CC2)n1 [CPD-656, N-(6-(dimethylamino)pyridazin-3-yl)-2-((2-(4-((6-((5-fluoro-4-(4-fluoro-1-isopropyl-2-methyl-1H-benzo[d]imidazol-6-yl)pyrimidin-2-yl)amino)pyridin-3-yl)methyl)piperazin-1-yl)-2-oxoethyl)amino)-6-(methylamino)nicotinamide] | C (Relative protein level >85%) | C (Relative protein level >85%)
14 | CNc1ccc(C(=O)Nc2ccc(N(C)C)nn2)c(NCCNC(=O)CN2CCN(c3ccc(Nc4ncc(F)c(-c5cc(F)c6nc(C)n(C(C)C)c6c5)n4)nc3)CC2)n1 [CPD-658, N-(6-(dimethylamino)pyridazin-3-yl)-2-((2-(2-(4-(6-((5-fluoro-4-(4-fluoro-1-isopropyl-2-methyl-1H-benzo[d]imidazol-6-yl)pyrimidin-2-yl)amino)pyridin-3-yl)piperazin-1-yl)acetamido)ethyl)amino)-6-(methylamino)nicotinamide] | C (Relative protein level >85%) | C (Relative protein level >85%)
15 | CNc1ccc(C(=O)Nc2ccc(N(C)C)nn2)c(NCCCNC(=O)CN2CCN(c3ccc(Nc4ncc(F)c(-c5cc(F)c6nc(C)n(C(C)C)c6c5)n4)nc3)CC2)n1 [CPD-659, N-(6-(dimethylamino)pyridazin-3-yl)-2-((3-(2-(4-(6-((5-fluoro-4-(4-fluoro-1-isopropyl-2-methyl-1H-benzo[d]imidazol-6-yl)pyrimidin-2-yl)amino)pyridin-3-yl)piperazin-1-yl)acetamido)propyl)amino)-6-(methylamino)nicotinamide] | C (Relative protein level >85%) | C (Relative protein level >85%)
16 | CNc1ccc(C(=O)Nc2ccc(N(C)C)nn2)c(NCCCCNC(=O)CN2CCN(c3ccc(Nc4ncc(F)c(-c5cc(F)c6nc(C)n(C(C)C)c6c5)n4)nc3)CC2)n1 [CPD-660, N-(6-(dimethylamino)pyridazin-3-yl)-2-((4-(2-(4-(6-((5-fluoro-4-(4-fluoro-1-isopropyl-2-methyl-1H-benzo[d]imidazol-6-yl)pyrimidin-2-yl)amino)pyridin-3-yl)piperazin-1-yl)acetamido)butyl)amino)-6-(methylamino)nicotinamide] | C (Relative protein level >85%) | C (Relative protein level >85%)
